The whole screen tested about 150,000 compounds, of which about 540 (0.36%) showed an effect of 50% or more. This is one part of the list.

This assay has as its system Plasmodium falciparum. As to the kind of experiment: Primary screen in NF54 nanoGlo assay, in single point, at 2uM, 72h; a lower Z score goes with more inhibition. The class given is functional, Erythrocyte. The following applies: timepoint 72 hour.
What is called % Inhibition is the drop in the measured response relative to a control, in per cent. In the case of `O=C(Cn1cc(S(=O)(=O)N2CCOCC2)ccc1=O)Nc1ccc(F)c(F)c1`, the “% Inhibition” value was -4% and the Z score is reported as 0.8.

In the case of `CCC1CC(NC(=O)NCC(F)(F)c2ccc(F)cc2)CCO1` (configuration not stated), the “% Inhibition” value is -9% and the Z score was determined as 1.63.

Consider `CN(CCCN1CCCC1)C(=O)NCc1c(F)cc(F)c(F)c1F`, for which the “% Inhibition” value amounted to 4% and the Z score was -0.72.

Take `CN1CCCC[C@@H]1CCOc1ccc(N)cc1`: the “% Inhibition” value is reported as -14% and the Z score amounted to 1.78.

`COc1ccccc1N(CCC(N)=O)C(=O)c1cccnc1OC`: the “% Inhibition” value is on record as 0% and the Z score is on record as 0.05.

Consider `O=C(CC1CCCCNC1=O)Nc1ccccc1C(O)C(F)(F)F` (configuration not stated), for which the “% Inhibition” value is -9% and the Z score was 1.34.

For the compound `O=C(c1cccs1)n1c(=S)sc2ccccc21`, the “% Inhibition” value is reported as -7% and the Z score amounted to 1.09.

For `Nc1nnc(CCNc2nc3c(c(=O)[nH]2)Cc2ccccc2OC3)s1`, the “% Inhibition” value is reported as -4% and the Z score is recorded as 0.37.

Consider `CCC[C@H](N)C(=O)N1CCCc2sccc2C1`, for which the “% Inhibition” value is reported as -2% and the Z score is reported as 0.41.

For `CCCN(CCN1CCN(CC)CC1)C(=O)c1cccnc1C`, the “% Inhibition” value was -8% and the Z score amounted to 0.79.

For the compound `O=C(Nc1ccon1)c1cc2c(s1)CCCCCC2`, the “% Inhibition” value is recorded as -21% and the Z score was determined as 2.42.

In the case of `CN(C)c1cc(C(=O)N(C)C2CCCCC2)ccn1`, the “% Inhibition” value is recorded as -6% and the Z score came to 0.7.

As to `O=C(c1ccoc1)N1CCOc2ccc(N3CCOCC3)cc2C1`, the “% Inhibition” value is reported as -7% and the Z score turned out to be 1.28.

Regarding `Cc1cccc(CN[C@@H](C)C2(N3CCOCC3)CCCC2)c1`, the “% Inhibition” value was -12% and the Z score was 1.36.

Turning to `CN(CCC1CCOCC1)Cc1c[nH]nc1-c1ccc(-c2ccccc2)cc1`, the “% Inhibition” value was -9% and the Z score was determined as 1.29.

Turning to `C[C@@H](Cc1ccccc1F)C(=O)N(C)S(C)(=O)=O`, the “% Inhibition” value is reported as -4% and the Z score is reported as 0.39.

Consider `CC1(CNC2CCC3(CCCC3)CC2)COC1`, for which the “% Inhibition” value is reported as 14% and the Z score is reported as -1.81.

On to `C[C@@H](Cn1cccn1)OC(=O)c1cnn(C)c1`, for which the “% Inhibition” value is recorded as -4% and the Z score worked out at 0.56.

As for `CCC(N[C@@H](C)CO)c1cccc(Cl)c1F` (some centres not stated), the “% Inhibition” value is listed as -11% and the Z score was 1.19.

With `O=C(c1ccc(=O)[nH]c1)N1CCN(C(=O)c2cc(F)c(Cl)cc2F)CC1`, the “% Inhibition” value is recorded as -2% and the Z score was 0.32.

With `CC1CCCC(CNC(=O)N[C@@H]2CCCN(S(=O)(=O)N(C)C)C2)O1` (some centres not stated), the “% Inhibition” value came out at 3% and the Z score was -0.54.

Turning to `CC(=O)N1CCN[C@@H](Cc2ccccc2)C1`, the “% Inhibition” value is listed as -2% and the Z score turned out to be 0.25.

As for `CC(=O)Nc1ccc(S(=O)(=O)NC(=O)C2=Cc3ccccc3OC2)cc1`, the “% Inhibition” value is on record as -2% and the Z score was 0.34.

`CC(C)CCOC1CCN(C(=O)NCC2CCCN(C)C2)C1` (configuration not stated): the “% Inhibition” value is on record as -13% and the Z score is recorded as 1.9.

On to `NC(=O)COc1c(Br)cccc1Br`, for which the “% Inhibition” value is listed as -6% and the Z score was 1.2.

As to `Cc1noc(C)c1-c1nc(C2CCCC2)nn1CCO`, the “% Inhibition” value is listed as -9% and the Z score amounted to 1.48.

For the compound `C#CCCC1(CCC(=O)N2CC3CC2(C(F)F)C3)N=N1`, the “% Inhibition” value is -5% and the Z score was found to be 0.58.

As for `CC(C)(C)OC(=O)N1CCC(F)(F)[C@@H](C#N)C1`, the “% Inhibition” value was -3% and the Z score was 0.53.

Take `Cc1onc(-c2ccccc2Cl)c1C(=O)NCC1(c2ccc(F)cc2)CCOCC1`: the “% Inhibition” value was -13% and the Z score was 2.28.

Take `O=C(c1cnc2ccccc2n1)N1C2CCC1COC2`: the “% Inhibition” value was -14% and the Z score worked out at 1.64.

As for `CCC1(O)CN(C(=O)c2cn(-c3nc(C)cc(C)n3)nc2C(C)C)C1`, the “% Inhibition” value was -5% and the Z score came out at 0.97.

With `CCOc1cc(Cl)ccc1C(=O)N1CC[C@H](N2CCOCC2)C1`, the “% Inhibition” value is on record as -5% and the Z score came to 0.6.

Take `c1cnc(N2CCN(Cc3ccco3)CC2)nc1`: the “% Inhibition” value worked out at 5% and the Z score is -0.93.

Take `CC1CN(C(=O)CCn2nnc3ccccc3c2=O)C(C)CO1` (configuration not stated): the “% Inhibition” value is given as -8% and the Z score amounted to 1.59.

With `Nc1c2c(-c3ccccc3Cl)nc(N3CCOCC3)nc2nn1-c1ccc(F)cc1`, the “% Inhibition” value was -6% and the Z score turned out to be 0.54.

Turning to `NC(=O)CN1CCC(NC(=O)c2cnn(Cc3ccccc3)c2)CC1`, the “% Inhibition” value is on record as -14% and the Z score came to 2.76.

For the compound `COCCN1C[C@@H](Cc2nc(C)nc3sccc23)CC1=O`, the “% Inhibition” value was -6% and the Z score is listed as 0.58.

Take `CCc1nc(-c2ccc(-c3noc(-c4ccsc4)n3)cc2)cs1`: the “% Inhibition” value is on record as -17% and the Z score is given as 1.7.

Take `O=C(c1ccccc1)N1c2nc(-c3ccc(F)cc3)nn2C2(CCCCC2)[C@@H]2CCCC[C@@H]21`: the “% Inhibition” value was -17% and the Z score is 2.75.

`O=C(c1cn(C2CCN(S(=O)(=O)c3ccc(OC(F)(F)F)cc3)CC2)nn1)N1CCCC1`: the “% Inhibition” value was -1% and the Z score was 0.1.

Take `CC(C)C[C@H](NC(=O)c1sccc1C#N)C(=O)Nc1cc[nH]n1`: the “% Inhibition” value is on record as 2% and the Z score is -0.38.

Take `COc1cccnc1NC(=O)NC1(C(F)(F)F)CCC1`: the “% Inhibition” value is reported as -14% and the Z score is on record as 1.73.

With `Cn1cc(-c2ccc3c(c2)OCC[C@@H]2CC[C@H](O)[C@@H](CNC(=O)[C@@H]4CN(C5CCOCC5)CCN4C3=O)O2)cn1`, the “% Inhibition” value is given as -8% and the Z score stood at 0.98.

Take `Cc1cccnc1CNC(=NCCN1CCOCC1)NCCC(C)C`: the “% Inhibition” value is -15% and the Z score was 2.9.

As to `COc1ccc(CC(=O)NCc2nnc3n2CCC3)cc1`, the “% Inhibition” value worked out at 30% and the Z score is -0.83.

As for `O=C1CC[C@@H]2CO[C@@H](c3ccccc3)N3C(=O)CC[C@H]3CO[C@H](c3ccccc3)N12`, the “% Inhibition” value was -3% and the Z score came out at 0.26.

Consider `CCOC(=O)N1CCN(CC(=O)c2cc(C)n(-c3ccc4c(c3)OCCO4)c2C)CC1`, for which the “% Inhibition” value is -14% and the Z score amounted to 1.99.

Consider `COCC1(C)CCN(c2nnc(Cc3cccnc3)n2C)CC1`, for which the “% Inhibition” value is reported as -8% and the Z score is 1.26.

For `Fc1ccc([C@@H]2C=C(c3ccc(Cl)cc3)Nc3nnnn32)cc1`, the “% Inhibition” value is on record as 2% and the Z score was -0.21.

For `c1ccc(C2(CN[C@H](c3cccnc3)c3cc4ccccc4o3)CC2)cc1`, the “% Inhibition” value is recorded as -8% and the Z score is reported as 0.71.

In the case of `CCN(CC)CCN(Cc1cccs1)c1nn2cc(C)nc2s1`, the “% Inhibition” value is reported as -8% and the Z score was 0.68.

For the compound `CC1CCC(CC(=O)N2CC3(CC3)C2)CC1` (configuration not stated), the “% Inhibition” value is reported as -5% and the Z score was 0.63.

With `COc1ccc(-c2nnc(C)o2)cc1NC(=O)c1cc(C#N)cn1C`, the “% Inhibition” value was -14% and the Z score was 2.96.

As for `Cn1nc(CNC(=O)c2cccs2)c2c1CCOC2`, the “% Inhibition” value was -4% and the Z score worked out at 0.82.

On to `CC(=O)N1CCC(Nc2cccnc2OC(C)C)CC1`, for which the “% Inhibition” value came out at 5% and the Z score is listed as -0.68.

Turning to `Cc1ccc2c(c1)cc(C(=O)N(C)CCc1ncon1)n2C`, the “% Inhibition” value was -6% and the Z score is listed as 0.96.
